Data as given in the supplement of paper PMC4967469.
Lines with a small IC50 respond at low doses; fits outside the tested doses are given as limits. The AUC spans the tested range (256-fold, ending at the top dose) of the same fit: 1 means no effect, lower means more sensitive. Any top dose called inferred was calculated from the reported fits.

Experiments:
Assay in all cases: Viability of human cancer cell lines after 72 h of drug (GDSC screen)
NG-25 = compound: CCN1CCN(Cc2ccc(NC(=O)c3ccc(C)c(Oc4ccnc5[nH]ccc45)c3)cc2C(F)(F)F)CC1 [NG-25]; conditions: top dose 10.24 µM; top dose inferred
Procedure: (§1)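 Human cancer cell lines in 384-well plates, medium with 10% serum, drug for 72 h over a 256-fold dose range (nine 2-fold or five 4-fold steps up to the top dose). Adherent lines were fixed and stained with the nucleic acid dye Syto60, suspension lines read with resazurin; signal relative to control wells, capped at 0 and 100%. One two-parameter sigmoid per drug and line, fitted in a mixed model over all curves with the slope shared within a line.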

GSK-1904529A = compound: CCc1cc(Nc2nccc(-c3c(-c4ccc(OC)c(C(=O)Nc5c(F)cccc5F)c4)nc4ccccn34)n2)c(OC)cc1N1CCC(N2CCN(S(C)(=O)=O)CC2)CC1 [GSK-1904529A]; conditions: top dose 1.024 µM; top dose inferred
Procedure: as §1

BMS-509744 = compound: COc1cc(C)c(Sc2cnc(NC(=O)c3ccc(CNC(C)C(C)(C)C)cc3)s2)cc1C(=O)N1CCN(C(C)=O)CC1 [BMS-509744]; conditions: top dose 10.24 µM; top dose inferred
Procedure: as §1

PFI-1 = compound: COc1ccccc1S(=O)(=O)Nc1ccc2c(c1)CN(C)C(=O)N2 [PFI-1]; conditions: top dose 10 µM; top dose inferred
Procedure: as §1

Tipifarnib = compound: Cn1cncc1[C@@](N)(c1ccc(Cl)cc1)c1ccc2c(c1)c(-c1cccc(Cl)c1)cc(=O)n2C [Tipifarnib]; conditions: top dose 16 µM; top dose inferred
Procedure: as §1

Cell Line | AUC (NG-25) | IC50 (NG-25) [µM] | AUC (GSK-1904529A) | IC50 (GSK-1904529A) [µM] | AUC (BMS-509744) | IC50 (BMS-509744) [µM] | AUC (PFI-1) | IC50 (PFI-1) [µM] | AUC (Tipifarnib) | IC50 (Tipifarnib) [µM]
OPM-2 (myeloma, suspension) | 0.745 | 2.73 | 0.993 | > 1.02 | 0.882 | 7.47 | 0.836 | 4.98 | 0.941 | > 16
OS-RC-2 (kidney, adherent) | 0.804 | 8.17 | 0.953 | > 1.02 | 0.805 | 8.22 | 0.972 | > 10 | 0.759 | 8.05
OVCAR-4 (ovary, adherent) | 0.828 | > 10.2 | 0.972 | > 1.02 | 0.828 | > 10.2 | 0.857 | > 10 | 0.595 | 2.07
P30-OHK (lymphoblastic leukaemia, suspension) | 0.424 | 0.413 | 0.983 | > 1.02 | 0.958 | > 10.2 | 0.604 | 1.15 | 0.309 | 0.323
P31-FUJ (acute myeloid leukaemia, suspension) | 0.993 | > 10.2 | 0.996 | > 1.02 | 0.991 | > 10.2 | 0.796 | 3.48 | 0.996 | > 16
P32-ISH (Burkitt lymphoma, suspension) | 0.551 | 0.849 | 0.986 | > 1.02 | 0.904 | 7.57 | 0.802 | 3.57 | 0.7 | 3.09
PF-382 (T-cell lymphoblastic leukaemia, suspension) | 0.669 | 1.77 | 0.991 | > 1.02 | 0.942 | > 10.2 | 0.945 | > 10 | 0.592 | 
PL-21 (acute myeloid leukaemia, suspension) | 0.859 | > 10.2 | 0.982 | > 1.02 | 0.74 | 3.54 | 0.88 | > 10 | 0.694 | 3.86
PSN1 (pancreas, adherent) | 0.884 | 8.06 | 0.99 | > 1.02 | 0.736 | 2.63 | 0.955 | > 10 | 0.452 | 0.757
QIMR-WIL (acute myeloid leukaemia, suspension) | 0.675 | 1.94 | 0.986 | > 1.02 | 0.902 | > 10.2 | 0.85 | 7.27 | 0.092 | < 0.0625
REH (B-cell leukaemia, suspension) | 0.769 | 3.72 | 0.986 | > 1.02 | 0.877 | 9.54 | 0.921 | > 10 | 0.237 | 0.179
RF-48 (stomach, adherent) | 0.367 | 0.263 | 0.985 | > 1.02 | 0.941 | > 10.2 | 0.975 | > 10 | 0.556 | 1.45
RH-1 (rhabdomyosarcoma, adherent) | 0.752 | 2.9 | 0.982 | > 1.02 | 0.967 | > 10.2 | 0.94 | > 10 | 0.674 | 2.79
RKO (large intestine, adherent) | 0.864 | 7.91 | 0.988 | > 1.02 | 0.779 | 3.87 | 0.722 | 2.52 | 0.508 | 1.05
RL (B-cell lymphoma, suspension) | 0.185 | 0.0813 | 0.989 | > 1.02 | 0.891 | > 10.2 | 0.904 | > 10 | 0.984 | > 16
ROS-50 (B-cell leukaemia, suspension) | 0.64 | 1.75 | 0.983 | > 1.02 | 0.925 | > 10.2 | 0.97 | > 10 | 0.922 | > 16
RPMI-6666 (Hodgkin lymphoma, suspension) | 0.327 | 0.19 | 0.927 | > 1.02 | 0.954 | > 10.2 | 0.829 | 8.01 | 0.282 | 0.209
RPMI-8226 (myeloma, suspension) | 0.933 | > 10.2 | 0.987 | > 1.02 | 0.901 | 10.2 | 0.791 | 3.85 | 0.841 | 
RPMI-8402 (T-cell lymphoblastic leukaemia, suspension) | 0.672 | 1.77 | 0.974 | > 1.02 | 0.847 | 5.79 | 0.782 | 3.49 | 0.512 | 1.07
RPMI-8866 (chronic myeloid leukaemia, suspension) | 0.578 | 1.03 | 0.987 | > 1.02 | 0.978 | > 10.2 | 0.709 | 2.32 | 0.92 | > 16
RS4-11 (leukaemia, suspension) | 0.86 | 7.43 | 0.979 | > 1.02 | 0.827 | 5.56 | 0.94 | > 10 | 0.58 | 1.62
RXF393 (kidney, adherent) | 0.676 | 2.42 | 0.977 | > 1.02 | 0.872 | > 10.2 | 0.965 | > 10 | 0.881 | > 16
Raji (Burkitt lymphoma, suspension) | 0.794 | 4.36 | 0.988 | > 1.02 | 0.944 | > 10.2 | 0.847 | 6.63 | 0.848 | 10.8
Ramos-2G6-4C10 (Burkitt lymphoma, suspension) | 0.775 | 3.47 | 0.988 | > 1.02 | 0.922 | > 10.2 | 0.885 | 8.15 | 0.888 | 13.5
SBC-1 (small cell lung carcinoma, suspension) | 0.969 | > 10.2 | 0.971 | > 1.02 | 0.973 | > 10.2 | 0.74 | 2.95 | 0.823 | 8.97

Cell Line | AUC (NG-25) | IC50 (NG-25) [µM] | AUC (GSK-1904529A) | IC50 (GSK-1904529A) [µM] | AUC (BMS-509744) | IC50 (BMS-509744) [µM] | AUC (PFI-1) | IC50 (PFI-1) [µM] | AUC (Tipifarnib) | IC50 (Tipifarnib) [µM]
SCC-15 (head and neck, adherent) | 0.896 | > 10.2 | 0.975 | > 1.02 | 0.92 | > 10.2 | 0.798 | 6.79 | 0.721 | 5.33
SCH (stomach, adherent) | 0.908 | > 10.2 | 0.988 | > 1.02 | 0.985 | > 10.2 | 0.98 | > 10 | 0.988 | > 16
SF126 (glioma, adherent) | 0.96 | > 10.2 | 0.974 | > 1.02 | 0.98 | > 10.2 | 0.835 | 7.07 | 0.64 | 2.49
SF268 (glioma, adherent) | 0.801 | 5.45 | 0.981 | > 1.02 | 0.864 | 10.1 | 0.89 | > 10 | 0.723 | 4.54
SF539 (glioma, adherent) | 0.858 | 7.12 | 0.989 | > 1.02 | 0.983 | > 10.2 | 0.859 | 7.01 | 0.895 | > 16
SH-4 (melanoma, adherent) | 0.785 | 7.29 | 0.954 | > 1.02 | 0.688 | 2.91 | 0.849 | > 10 | 0.539 | 1.35
SIMA (neuroblastoma, adherent) | 0.734 | 3.3 | 0.984 | > 1.02 | 0.913 | > 10.2 | 0.898 | > 10 | 0.818 | 10.5
SJSA-1 (bone, adherent) | 0.922 | > 10.2 | 0.982 | > 1.02 | 0.803 | 5.87 | 0.831 | 7.52 | 0.695 | 3.82
SK-ES-1 (Ewing sarcoma, semi-adherent) | 0.864 | 9.93 | 0.983 | > 1.02 | 0.785 | 4.68 | 0.977 | > 10 | 0.391 | 0.491
SK-LMS-1 (soft tissue, adherent) | 0.804 | 4.83 | 0.987 | > 1.02 | 0.897 | > 10.2 | 0.778 | 3.85 | 0.261 | 0.216
SK-MEL-1 (melanoma, suspension) | 0.931 | > 10.2 | 0.993 | > 1.02 | 0.972 | > 10.2 | 0.958 | > 10 | 0.993 | > 16
SK-MEL-2 (melanoma, adherent) | 0.987 | > 10.2 | 0.986 | > 1.02 | 0.956 | > 10.2 | 0.924 | > 10 | 0.439 | 0.678
SK-MM-2 (myeloma, suspension) | 0.819 | 6.16 | 0.986 | > 1.02 | 0.885 | > 10.2 | 0.835 | 6.98 | 0.781 | 6.92
SK-N-FI (neuroblastoma, adherent) | 0.94 | > 10.2 | 0.989 | > 1.02 | 0.982 | > 10.2 | 0.894 | > 10 | 0.98 | > 16
SK-PN-DW (Ewing sarcoma, adherent) | 0.752 | 3.5 | 0.973 | > 1.02 | 0.88 | > 10.2 | 0.928 | > 10 | 0.666 | 2.95
SK-UT-1 (soft tissue, adherent) | 0.924 | > 10.2 | 0.985 | > 1.02 | 0.977 | > 10.2 | 0.877 | 8.47 | 0.691 | 3.24
SLVL (B-cell lymphoma, suspension) | 0.522 | 0.739 | 0.98 | > 1.02 | 0.946 | > 10.2 | 0.905 | > 10 | 0.629 | 2.33
SNB75 (glioma, adherent) | 0.976 | > 10.2 | 0.945 | > 1.02 | 0.782 | 6.57 | 0.849 | > 10 | 0.741 | 6.9
SNU-C1 (large intestine, suspension) | 0.975 | > 10.2 | 0.974 | > 1.02 | 0.898 | > 10.2 | 0.871 | > 10 | 0.975 | > 16
SNU-C2B (large intestine, adherent) | 0.921 | > 10.2 | 0.966 | > 1.02 | 0.767 | 5.04 | 0.924 | > 10 | 0.701 | 4.45
SR (lymphoid neoplasm, suspension) | 0.828 | 5.48 | 0.963 | > 1.02 | 0.885 | 9.21 | 0.817 | 4.9 | 0.59 | 1.71
ST486 (Burkitt lymphoma, suspension) | 0.601 | 1.17 | 0.987 | > 1.02 | 0.911 | > 10.2 | 0.803 | 4.32 | 0.542 | 1.28
SU-DHL-4 (B-cell lymphoma, suspension) | 0.578 | 0.988 | 0.997 | > 1.02 | 0.975 | > 10.2 | 0.997 | > 10 | 0.898 | 10
SU-DHL-6 (B-cell lymphoma, suspension) | 0.496 | 0.626 | 0.995 | > 1.02 | 0.915 | 8.07 | 0.902 | 7.01 | 0.318 | 0.361
SU-DHL-8 (B-cell lymphoma, suspension) | 0.768 | 3.59 | 0.981 | > 1.02 | 0.914 | > 10.2 | 0.807 | 4.72 | 0.452 | 0.749
